From the supplement of paper PMC10037445
Whole data set: some 2,900 compounds, median “NF-kB SEAP reporter activity, fold change vs agonist alone” near 0.99, cut for the highest 2% near 2.6. The list shows a part of the results.

What was measured:
[1] = test system: RAW-Dual; test: NF-kB SEAP reporter activity, fold change vs agonist alone; cytotoxicity flag (confluency mask): not cytotoxic; higher = enhanced NF-kB activity
Summary of the method: (§1)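 RAW-Dual macrophages (50,000 cells/well in DMEM, 384-well plates) received 50 nL of library stock by pin tool, then a PRR agonist 1 h later, and were kept at 37 °C, 5% CO2. After 20 hours, supernatant was read for IRF by QuantiLuc luminescence and for NF-κB by QuantiBlue absorbance at 620 nm. Reporter activity is fold change over agonist-alone wells. Cytotoxic wells had IncuCyte confluency below 70% of agonist controls in both mask sets.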

[2] = test system: RAW-Dual; test: NF-kB SEAP reporter activity, fold change vs agonist alone; higher = enhanced NF-kB activity
Summary of the method: as §1

[3] = test system: RAW-Dual; test: NF-kB SEAP reporter activity, fold change vs agonist alone; cytotoxicity flag (confluency mask): cytotoxic (confluency <70% of control); higher = enhanced NF-kB activity
Summary of the method: as §1

[4] = agonist: ODN 1826 (TLR9) 0.5 ug/mL
[5] = agonist: Pam2CSK4 (TLR2/6) 0.1 ug/mL
[6] = agonist: Pam3CSK4 (TLR2/1) 0.1 ug/mL
[7] = library stock concentration (final ~1000-fold dilution): 10 mM, cytotoxicity flag (confluency mask): not cytotoxic, agonist: Imiquimod (TLR7) […]
[8] = library stock concentration (final ~1000-fold dilution): 10 mM, cytotoxicity flag (confluency mask): not cytotoxic, agonist: MPLA (TLR4) […]

Cl.NCCOc1ccc(Cl)cc1C(=O)Nc1ccc([N+](=O)[O-])cc1Cl (library stock concentration (final ~1000-fold dilution): 10 mM)
NF-kB SEAP reporter activity ([1]; agonist: LPS (TLR4) 0.1 ug/mL): 1.29 | NF-kB SEAP reporter activity [1, 4]: 0.59 | NF-kB SEAP reporter activity [1, 5]: 0.918 | NF-kB SEAP reporter activity [1, 6]: 0.91

Cl.NCCOc1ccc(Cl)cc1C(=O)Nc1ccc([N+](=O)[O-])cc1Cl
NF-kB SEAP reporter activity [2, 7]: 1.31 | NF-kB SEAP reporter activity [2, 8]: 0.949

CCCCCCCCCCCCCCCCOc1nc2ccc(C)cc2c(=O)o1 (library stock concentration (final ~1000-fold dilution): 2 mM)
NF-kB SEAP reporter activity ([1]; agonist: LPS (TLR4) 0.1 ug/mL): 1.26 | NF-kB SEAP reporter activity [1, 4]: 1.03 | NF-kB SEAP reporter activity [1, 5]: 1.06 | NF-kB SEAP reporter activity [1, 6]: 0.981

CCCCCCCCCCCCCCCCOc1nc2ccc(C)cc2c(=O)o1
NF-kB SEAP reporter activity ([2]; library stock concentration (final ~1000-fold dilution): 2 mM, cytotoxicity flag (confluency mask): not cytotoxic, agonist: MPLA (TLR4) […]): 1.05

CC(C)(C)c1nc(-c2ccc(NC(=O)Nc3cccc(C(F)(F)F)c3)c3ccccc23)c2c(N)nccn12 (library stock concentration (final ~1000-fold dilution): 10 mM)
NF-kB SEAP reporter activity ([3]; agonist: LPS (TLR4) 0.1 ug/mL): 0.488 | NF-kB SEAP reporter activity [3, 4]: 0.163 | NF-kB SEAP reporter activity [3, 5]: 0.0888 | NF-kB SEAP reporter activity [3, 6]: 0.136

CC(C)(C)c1nc(-c2ccc(NC(=O)Nc3cccc(C(F)(F)F)c3)c3ccccc23)c2c(N)nccn12
NF-kB SEAP reporter activity ([2]; library stock concentration (final ~1000-fold dilution): 10 mM, cytotoxicity flag (confluency mask): cytotoxic (confluency <70% of control), agonist: Imiquimod (TLR7) […]): 0.139 | NF-kB SEAP reporter activity ([2]; library stock concentration (final ~1000-fold dilution): 10 mM, cytotoxicity flag (confluency mask): cytotoxic (confluency <70% of control), agonist: MPLA (TLR4) […]): 0.252

CC(C(O)c1ccc(O)cc1)N1CCC(Cc2ccccc2)CC1.CC(C(O)c1ccc(O)cc1)N1CCC(Cc2ccccc2)CC1.O=C(O)C(O)C(O)C(=O)O (configuration not stated)
NF-kB SEAP reporter activity [2, 7]: 1.14 | NF-kB SEAP reporter activity [2, 8]: 0.926

CC(C(O)c1ccc(O)cc1)N1CCC(Cc2ccccc2)CC1.CC(C(O)c1ccc(O)cc1)N1CCC(Cc2ccccc2)CC1.O=C(O)C(O)C(O)C(=O)O (configuration not stated) (library stock concentration (final ~1000-fold dilution): 10 mM)
NF-kB SEAP reporter activity ([1]; agonist: LPS (TLR4) 0.1 ug/mL): 1.19 | NF-kB SEAP reporter activity [1, 4]: 0.64 | NF-kB SEAP reporter activity [1, 5]: 1.04 | NF-kB SEAP reporter activity [1, 6]: 0.922

CCCS(=O)c1ccc2nc(NC(=O)OC)[nH]c2c1 (configuration not stated)
NF-kB SEAP reporter activity [2, 7]: 1.04 | NF-kB SEAP reporter activity [2, 8]: 0.808

CCCS(=O)c1ccc2nc(NC(=O)OC)[nH]c2c1 (configuration not stated) (library stock concentration (final ~1000-fold dilution): 10 mM)
NF-kB SEAP reporter activity ([1]; agonist: LPS (TLR4) 0.1 ug/mL): 1.06 | NF-kB SEAP reporter activity [1, 4]: 0.948 | NF-kB SEAP reporter activity [1, 5]: 1.05 | NF-kB SEAP reporter activity [1, 6]: 1.09

COc1ccc(CC(N)C(=O)NC2C(CO)OC(n3cnc4c(N(C)C)ncnc43)C2O)cc1.Cl.Cl (configuration not stated)
NF-kB SEAP reporter activity [2, 7]: 0.438 | NF-kB SEAP reporter activity [2, 8]: 1.12

COc1ccc(CC(N)C(=O)NC2C(CO)OC(n3cnc4c(N(C)C)ncnc43)C2O)cc1.Cl.Cl (configuration not stated) (library stock concentration (final ~1000-fold dilution): 10 mM)
NF-kB SEAP reporter activity ([1]; agonist: LPS (TLR4) 0.1 ug/mL): 0.584 | NF-kB SEAP reporter activity [1, 4]: 0.469 | NF-kB SEAP reporter activity [1, 5]: 0.13 | NF-kB SEAP reporter activity [1, 6]: 0.256

COc1cc2nc(N3CCN(C(=O)C4COc5ccccc5O4)CC3)nc(N)c2cc1OC.CS(=O)(=O)O (configuration not stated)
NF-kB SEAP reporter activity [2, 7]: 1.28 | NF-kB SEAP reporter activity [2, 8]: 1.52

COc1cc2nc(N3CCN(C(=O)C4COc5ccccc5O4)CC3)nc(N)c2cc1OC.CS(=O)(=O)O (configuration not stated) (library stock concentration (final ~1000-fold dilution): 10 mM)
NF-kB SEAP reporter activity ([1]; agonist: LPS (TLR4) 0.1 ug/mL): 1.27 | NF-kB SEAP reporter activity [1, 4]: 0.201 | NF-kB SEAP reporter activity [1, 5]: 1.05 | NF-kB SEAP reporter activity [1, 6]: 1.45

COc1ccnc2[nH]cc(C(=O)C(=O)N3CCN(C(=O)c4ccccc4)CC3C)c12 (configuration not stated) (library stock concentration (final ~1000-fold dilution): 10 mM)
NF-kB SEAP reporter activity ([1]; agonist: LPS (TLR4) 0.1 ug/mL): 0.892 | NF-kB SEAP reporter activity [1, 4]: 1.05 | NF-kB SEAP reporter activity [1, 5]: 1.11 | NF-kB SEAP reporter activity [1, 6]: 1.1

COc1ccnc2[nH]cc(C(=O)C(=O)N3CCN(C(=O)c4ccccc4)CC3C)c12 (configuration not stated)
NF-kB SEAP reporter activity [2, 7]: 0.968 | NF-kB SEAP reporter activity [2, 8]: 0.941

Nc1cc(F)ccc1NC(=O)/C=C/c1cnn(C/C=C/c2ccccc2)c1
NF-kB SEAP reporter activity [2, 7]: 1.14 | NF-kB SEAP reporter activity [2, 8]: 1.2

Nc1cc(F)ccc1NC(=O)/C=C/c1cnn(C/C=C/c2ccccc2)c1 (library stock concentration (final ~1000-fold dilution): 10 mM)
NF-kB SEAP reporter activity ([1]; agonist: LPS (TLR4) 0.1 ug/mL): 0.995 | NF-kB SEAP reporter activity [1, 4]: 1.12 | NF-kB SEAP reporter activity [1, 5]: 0.405 | NF-kB SEAP reporter activity [1, 6]: 0.419

O=C(Nc1nccs1)C(c1cc(F)ccc1O)N1Cc2ccccc2C1=O (configuration not stated)
NF-kB SEAP reporter activity [2, 7]: 0.944 | NF-kB SEAP reporter activity [2, 8]: 0.982

O=C(Nc1nccs1)C(c1cc(F)ccc1O)N1Cc2ccccc2C1=O (configuration not stated) (library stock concentration (final ~1000-fold dilution): 10 mM)
NF-kB SEAP reporter activity ([1]; agonist: LPS (TLR4) 0.1 ug/mL): 0.902 | NF-kB SEAP reporter activity [1, 4]: 0.989 | NF-kB SEAP reporter activity [1, 5]: 0.865 | NF-kB SEAP reporter activity [1, 6]: 1.02

NC1=NC(c2cccc(-c3cncnc3)c2)(c2ccnc(C(F)F)c2)c2cccc(F)c21 (configuration not stated)
NF-kB SEAP reporter activity [2, 7]: 0.724 | NF-kB SEAP reporter activity [2, 8]: 1.05

NC1=NC(c2cccc(-c3cncnc3)c2)(c2ccnc(C(F)F)c2)c2cccc(F)c21 (configuration not stated) (library stock concentration (final ~1000-fold dilution): 10 mM)
NF-kB SEAP reporter activity ([1]; agonist: LPS (TLR4) 0.1 ug/mL): 1.01 | NF-kB SEAP reporter activity [1, 4]: 0.837 | NF-kB SEAP reporter activity [1, 5]: 0.902 | NF-kB SEAP reporter activity [1, 6]: 1

COc1cc(C(C)=O)ccc1O (library stock concentration (final ~1000-fold dilution): 10 mM)
NF-kB SEAP reporter activity ([1]; agonist: LPS (TLR4) 0.1 ug/mL): 1.04 | NF-kB SEAP reporter activity [1, 4]: 1.04 | NF-kB SEAP reporter activity [1, 5]: 0.925 | NF-kB SEAP reporter activity [1, 6]: 1.13

COc1cc(C(C)=O)ccc1O
NF-kB SEAP reporter activity [2, 7]: 0.932 | NF-kB SEAP reporter activity [2, 8]: 0.986

CC/C(=C(/c1ccc(/C=C/C(=O)O)cc1)c1ccc2[nH]ncc2c1)c1ccc(F)cc1Cl (library stock concentration (final ~1000-fold dilution): 10 mM)
NF-kB SEAP reporter activity ([1]; agonist: LPS (TLR4) 0.1 ug/mL): 0.434 | NF-kB SEAP reporter activity [1, 4]: 0.355 | NF-kB SEAP reporter activity [1, 5]: 0.404 | NF-kB SEAP reporter activity [1, 6]: 0.233

CC/C(=C(/c1ccc(/C=C/C(=O)O)cc1)c1ccc2[nH]ncc2c1)c1ccc(F)cc1Cl
NF-kB SEAP reporter activity [2, 7]: 0.465 | NF-kB SEAP reporter activity [2, 8]: 0.809
